Laboratory results published in PubChem BioAssay AID1745853 (National Center for Advancing Translational Sciences (NCATS), 2022).
Some of the results follow. These are further read-outs of the screen, such as a control signal, another cell line or another target. No call is given for them.

Assays:
Assay in all cases: Primary Screen for Target Class Profiling of Small Molecule Inhibitors of Methyltransferases
[1] = target: Glycine N-methyltransferase (Homo sapiens) (UniProt Q14749); settings: purified enzyme, MTase-Glo SAH luminescence; measured here: GNMT inhibition; at 40 µM; stronger effect = lower value
Summary of the method: (§1)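 Each enzyme was reacted with SAM and its substrate, with compounds tested once at 40 uM; SAH formed was read by MTase-Glo luminescence.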

[2] = target: Guanidinoacetate N-methyltransferase (Homo sapiens) (UniProt Q14353); settings: purified enzyme, MTase-Glo SAH luminescence; measured here: GAMT inhibition; at 40 µM; stronger effect = lower value
Summary of the method: as §1

[3] = target: Histamine N-methyltransferase (Homo sapiens) (UniProt P50135); settings: purified enzyme, MTase-Glo SAH luminescence; measured here: HNMT inhibition; at 40 µM; stronger effect = lower value
Summary of the method: as §1

[4] = target: Nicotinamide N-methyltransferase (Homo sapiens) (UniProt P40261); settings: purified enzyme, MTase-Glo SAH luminescence; measured here: NNMT inhibition; at 40 µM; stronger effect = lower value
Summary of the method: as §1

[5] = target: Phenylethanolamine N-methyltransferase (Homo sapiens) (UniProt P11086); settings: purified enzyme, MTase-Glo SAH luminescence; measured here: PNMT inhibition; at 40 µM; stronger effect = lower value
Summary of the method: as §1
% is set by controls: 0 for no effect and ±100 for the full control effect.

Structure (SMILES)	activity change, negative = inhibition [1] [%]	activity change, negative = inhibition [2] [%]	activity change, negative = inhibition [3] [%]	activity change, negative = inhibition [4] [%]	activity change, negative = inhibition [5] [%]
CCOC(=O)c1cc2n(n1)CC(C)(C(=O)NCc1ccc(Cl)cc1)N(Cc1cccc(C)c1)C2=O (stereo not drawn)	7.5	0	10.9	4.56	8.07
O=C(O)CCc1nccc2c1[nH]c1ccccc12	-4.11	-2.95	4.99	-11.2	-2.97
COc1cc(C(=O)OC[C@@]2(O)CO[C@@H](O[C@H]3[C@H](Oc4ccc(C(=O)O)cc4OC)O[C@H](CO)[C@@H](O)[C@@H]3O)[C@@H]2O)ccc1O	0	3.37	2.64	-8.52	5.68
O=C(CCc1ccccc1)N1CCCC(CN2CCCC2)CC1 (stereo not drawn)	-10.7	-7.43	-29.4	-15.4	-8.86
CC(C)OCCCNC(=O)C1c2c(n(C)c3ccccc23)SCC(=O)N1c1ccccc1F (stereo not drawn)	5.66	2.56	-1.54	-4.7	0.082
COc1cc(OC)cc(N2C(=O)CSc3c(c4ccccc4n3C)C2C(=O)NCc2ccccc2OC)c1 (stereo not drawn)	5.87	2.9	0.975	-6.79	-0.066
COc1ccc(CNC(=O)C2(C)Cn3cnc(C(=O)N4CCc5ccccc54)c3C(=O)N2C2CC2)cc1 (stereo not drawn)	3.96	1.93	3.19	2.04	5.83
CCCn1c(=O)sc2cc(NS(=O)(=O)c3ccc4c(c3)n(C)c(=O)n4C)ccc21	-4.21	0	10.2	-3.15	2.14
COc1cc2c(NC(C)=O)c3n(c2cc1OC)CC(C)(C(=O)NC1CCCCCC1)N(Cc1ccccc1)C3=O (stereo not drawn)	-3.02	0.579	-3.02	5.48	-1.47
CC(O)/C=C/C1(O)C2(C)COC1(C)CC(O)C2 (stereo not drawn)	-5.11	-14.5	0.746	-19.2	-12.1
CS/C=C/C(=O)O[C@@H]1CCC2=CC(=O)C(=C(C)C)C[C@]2(C)[C@H]1C	-4.67	-12.5	-0.799	-27.5	-3.16
CC(C)(C[C@@](O)(Cc1cc2ccncc2[nH]1)C(F)(F)F)c1cc(F)ccc1O	-5.78	4.45	-51.8	-20.8	-14.3
C=CC(C)(O)C1CC2C3(C)CCCC(C)(C)C3C(O)C(O)C2(C)O1 (stereo not drawn)	-1.7	-1.27	5.59	-12.1	-5.05
Cc1nc2ncnn2c(C)c1CCC(=O)N1C[C@@H](N)C[C@H]1C(=O)NC(C)C	-0.768	-2.19	-3.16	-1.7	-2.69
Cn1cc(-c2cc3c(ccn3Cc3ccncc3)c(N3CCOCC3)n2)cn1	-51	-25.4	-19.5	-12.5	-45.3
CC1(C(=O)NC2CCCC2)Cn2c(ccc2-c2ccco2)C(=O)N1Cc1ccc(Cl)cc1 (stereo not drawn)	-6.2	5.48	2.5	-8.81	-2.13
COc1ccc(CC(=O)N2CCC(c3n[nH]c(=O)n3Cc3ccc(F)cc3)CC2)cc1	-4.39	-4.93	-1.75	-8.27	0.981
O=C(C1CCCC1)N1CCC(C(=O)N2CCCC2c2ccccn2)CC1 (stereo not drawn)	2.5	1.97	0.262	1.48	13
CC(=O)OC1CC2(C)C(CCC(C)C23Cc2c(O)cc(CO)c(C=O)c2O3)C(C)(C)C1O (stereo not drawn)	-2.78	-1.93	10.9	-17.3	-9.73
COCCn1nnnc1C1CC2(CCOCC2)C(=O)N1Cc1ccc(SC)cc1 (stereo not drawn)	-1.91	-1.55	-0.847	-3.28	-4.22

Structure (SMILES)	activity change, negative = inhibition [1] [%]	activity change, negative = inhibition [2] [%]	activity change, negative = inhibition [3] [%]	activity change, negative = inhibition [4] [%]	activity change, negative = inhibition [5] [%]
Cc1ccc(NC(=O)CSc2nnc3n(CCC(C)C)c(=O)c4ccccc4n23)c(Cl)c1	0.257	0	4.45	-6.9	6.84
Cc1c(NS(=O)(=O)c2ccc3c(c2)n(C)c(=O)n3C)c(=O)n(-c2ccccc2)n1C	2.79	0.955	10.6	12	4.43
CC1(C)CC[C@]2(C(=O)O[C@@H]3O[C@H](CO)[C@@H](O)[C@H](O)[C@H]3O)CC[C@]3(C)C(=CCC4[C@@]5(C)C[C@@H](O)[C@H](O)[C@](C)(C(=O)O)C5CC[C@]43C)C2C1O (stereo partly drawn)	-4.82	-16.1	0.319	-20.8	-7.81
COCC1CN(C(C)=O)CC12CCN(Cc1cccc(Cl)c1F)CC2 (stereo not drawn)	-0.816	-1.55	2.49	-4.93	-4.63
O=C(Cn1c(=O)oc2cc(S(=O)(=O)N3CCCC3)ccc21)N1CCC(Cc2ccccc2)CC1	-2.44	1.57	-4.11	-8.76	-7.3
Cc1c(-c2ccc3c(c2)OCO3)oc2ccc(C(O)C(C)O)cc12 (stereo not drawn)	0	3.41	5.46	-9.4	5.93
CC1CCC(NC(=O)C2(C)Cn3c(cc4sccc43)C(=O)N2Cc2ccc(F)cc2)CC1 (stereo not drawn)	3	0	1.04	-7.63	-3.96
CNc1nc(-c2ccc3c(N)n[nH]c3c2)cc(N2CC(C(=O)NC3CCCCC3)CCC2C)n1 (stereo not drawn)	-7.45	8.58	4.96	-20.1	4.34
Cc1nc(N=Nc2ccc(C(=O)O)cc2)c(COP(=O)(O)O)c(C=O)c1O	-10.6	4.67	-6.36	-4.72	5.59
CCn1cc(CN2CCN(C(=O)CCc3ccccc3)CC2)ccc1=O	-16.2	-4.59	-2.62	-8.08	-17.7
COC(=O)[C@@H]1Cc2ncn(C(C)C)c2CN1S(C)(=O)=O	1.25	-2.11	-1.33	-1.02	-8.56
CCCn1c(=O)c2ccc(C(=O)NC(C)CC)cc2n2c(=O)n(C)nc12 (stereo not drawn)	8.19	1.85	11.3	10.5	9.63
C[C@@H]1O[C@@H](O[C@H]2[C@H](O[C@H]3CC[C@@]4(C)C(CC[C@]5(C)C4C=C[C@]46OC[C@@]7(CCC(C)(C)C[C@H]74)[C@@H](O[C@@H]4O[C@@H](C)[C@H](O)[C@@H](O)[C@H]4O)C[C@]65C)[C@]3(C)CO)O[C@H](CO)[C@@H](O)[C@@H]2O[C@@H]2O[C@H](CO)[C@@H](O)[C@H](O)[C@H]2O)[C@H](O)[C@H](O)[C@H]1O (stereo partly drawn)	3.6	12.6	3.53	0.702	10.3
CCC(C)N1C(=O)c2ccc(-c3ccco3)n2CC1(C)C(=O)NC1CCCCCC1 (stereo not drawn)	-1.41	0	1.82	-2	-4.12
Cc1cc2[nH]c(=O)[nH]c2cc1S(=O)(=O)N1CCCCC1	-1.88	-2.31	-9.47	-13.4	-16.4
Cc1cc(C)cc(Nc2nc(C)cc3nn(CC(=O)Nc4cccc(Cl)c4)c(=O)n23)c1	1.99	0	-1.34	-2.1	-2.73
CCOC(=O)N1CCC(NCCNC(=O)c2ccccc2C)CC1	-4.99	-5.25	8.17	-16.5	-1.18
Cc1ccc(NC(=O)N2CCC3(CC2)CC(Cc2nc(-c4ccccc4)no2)CCO3)cc1C (stereo not drawn)	-8.06	-10.1	-7.68	-12.1	-5.87
CCOC(=O)c1cccc(NS(=O)(=O)c2ccc3c(c2)NC(=O)CC(=O)N3)c1	-2.9	4.14	2.82	1.92	-0.885
Cc1ccc(Nc2nnc(-c3ccc([N+](=O)[O-])cc3)o2)cc1Cl	-5.59	-9.5	1.54	-14.7	-14.7

Structure (SMILES)	activity change, negative = inhibition [1] [%]	activity change, negative = inhibition [2] [%]	activity change, negative = inhibition [3] [%]	activity change, negative = inhibition [4] [%]	activity change, negative = inhibition [5] [%]
CC(C)OCCCNC(=O)CCc1nnc2n(Cc3ccc(F)cc3)c(=O)c3ccccc3n12	-11.5	-2.24	-8.51	-0.769	-11.1
C=C(C)C(=O)O[C@H]1CC2=CC(C/C(C)=C\[C@H]3OC(=O)C(=C)[C@H]13)OC2=O (stereo partly drawn)	-1.52	-9.72	-2.89	-18.6	0.294
CC1CCCCC1NC(=O)C1(C)Cn2c(ccc2-c2ccco2)C(=O)N1CCc1ccccc1 (stereo not drawn)	-1.2	3.06	4.66	-4.17	2.7
CN(C)CCCNc1c2ccccc2nc2c1[nH]c1ccccc12		8.7		-34.2	-11.6
CCOc1ccccc1NS(=O)(=O)c1ccc2[nH]c3c(c2c1)CCCC3	5.1	0.26	2.64	-1.74	2.1
CC(=O)Nc1ccc(CN2CCC3(C2)C(=O)N(C)c2ccccc23)cc1 (stereo not drawn)	-7.86	-4.44	-6.27	-10.3	-8.91
Cc1oc(C(=O)O)cc1COc1ccc2c(-c3ccccc3)cc(=O)oc2c1	-22.7	0	3.83	-4.2	-6.24
COc1ccc(-c2cc(C(=O)N3CCCC3)ccn2)cc1F	-3.32	1.67	1.3	-7.15	17.9
CCOc1ccc(CN(CCOC)C(=O)C2CC3(CCNCC3)CN2)cc1 (stereo not drawn)	-3.93	-9	-2.99	-11.8	-20.7
Nc1nc2c(nc(Sc3ccc(Cl)cc3)n2[C@@H]2O[C@@H]3COP(=O)(O)O[C@H]3[C@H]2O)c(=O)[nH]1	1.37	6.68	9.92	-8.14	3.09
O=C(Nc1nc2ccccc2s1)c1ccc2c(c1)OCCN(CCC(F)(F)F)C2	-6.75	-4.35	-2.58	-2.33	-8.53
CC(CN1C(=O)c2cc3occc3n2CC1(C)C(=O)NC1CCCC(C)C1C)c1ccccc1 (stereo not drawn)	-0.682	-6.14	5.26	-0.641	-1.07
CCc1ccc(N2C(=O)c3cc(-c4cccs4)nn3CC2(C)C(=O)NC2CCCCC2)cc1 (stereo not drawn)	1.43	0.525	8.13	6.32	1.27
O=c1[nH]c2ccccc2n1C1CCN(S(=O)(=O)c2ccc3c(c2)OCCO3)CC1	-6.15	1.22	5.44	-7.12	-12.6
Oc1ccc(O)cc1	-40.3	14.9	10.4	-2.23	5.22
Cc1cccc(-c2nnc3n(CCc4ccccc4)c(=O)c4ccccc4n23)c1	-1.14	-51.4	2.77	-5.48	-7.77
COCC(=O)N[C@@H]1CN(Cc2cn(C)nc2C)C[C@H]1CO	-1.3	3.38	0.894	4.37	-1.68
CCn1nc(C)c(CNC(=O)c2cc(COc3ccc4ncccc4c3)on2)c1C	-11.1	-2.63	-2.65	-10.4	-3.82
